Results on 56 compounds are retold here after PubChem BioAssay AID360 (National Center for Advancing Translational Sciences (NCATS), 2006).

The structures appear in SMILES notation. Screen size: about 48,000 compounds; about 550 (1.1%) were called active. Another 4% or so got no clear call; they are omitted. Rule as the data show it: active = potency below about 15 µM; inconclusive = mostly about 16 µM to 33 µM; inactive = weaker than that. The list shows a part of the results.
Potency is read from the fitted curve at half-maximal effect.

UniProt P04062, sequence (P04062 whole entry, looked up): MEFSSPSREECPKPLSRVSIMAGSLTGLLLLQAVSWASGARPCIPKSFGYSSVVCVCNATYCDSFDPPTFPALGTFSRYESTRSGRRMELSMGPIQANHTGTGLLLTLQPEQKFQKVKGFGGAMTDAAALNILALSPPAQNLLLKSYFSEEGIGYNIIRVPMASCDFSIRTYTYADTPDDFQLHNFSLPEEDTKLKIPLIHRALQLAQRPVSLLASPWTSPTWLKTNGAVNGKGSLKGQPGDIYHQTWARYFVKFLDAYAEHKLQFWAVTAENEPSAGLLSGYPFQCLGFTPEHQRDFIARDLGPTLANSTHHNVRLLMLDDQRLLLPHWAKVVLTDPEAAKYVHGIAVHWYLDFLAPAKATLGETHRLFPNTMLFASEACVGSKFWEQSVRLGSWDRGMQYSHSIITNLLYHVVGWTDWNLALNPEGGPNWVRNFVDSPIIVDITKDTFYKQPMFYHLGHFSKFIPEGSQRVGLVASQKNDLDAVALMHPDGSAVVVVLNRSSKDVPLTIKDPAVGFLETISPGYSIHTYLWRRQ

In the experiment the target is Lysosomal acid glucosylceramidase (Homo sapiens) (UniProt P04062). In words: Glucocerebrosidase.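 Also: the screen sought inhibitors.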 The following applies: purified enzyme, resorufin glucoside fluorescence (screen aimed at inhibitors), 20 min. The method, boiled down:
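Wild-type enzyme at 0.2 nM final in 50mM citric acid/KH2PO4, 10mM sodium taurocholate, 0.01% tween-20, pH 5.9, with resorufin beta-D-glucopyranoside at 30 uM final. Compounds titrated, 20 min at RT, red fluorescence read; AC50 from titration.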
`COCCN(Cc1cc2cc3c(cc2n2nnnc12)OCO3)C(=O)c1ccccc1F`: the Potency is inactive: > 76.9 µM.

For the compound `O=C(CSc1nnc(-c2ccccc2)o1)N1CCN(c2ccccc2)CC1`, the Potency is inactive: > 76.9 µM.

In the case of `O=C(CCCCn1c(=O)c2ccccc2n(Cc2ccc(Cl)cc2)c1=O)NCc1ccco1`, the Potency was inactive: > 76.9 µM.

For the compound `COc1ccc(OC)c(/C=N/c2oc(-c3ccco3)c(-c3ccco3)c2C#N)c1`, the Potency is inactive: > 76.9 µM.

In the case of `Cc1ccccc1Nc1nc(N)nc(CSCc2c(C)noc2C)n1`, the Potency was inactive: > 76.9 µM.

With `Nc1nnc(SCCOc2ccc(Br)cc2)s1`, the Potency was inactive: > 76.9 µM.

Consider `Cc1ccc(C)c(Cn2cnc3c(nnn3-c3ccc(F)cc3)c2=O)c1`, for which the Potency was inactive: > 76.9 µM.

`CC(C)N(Cc1nc(-c2ccccc2)no1)C(=O)CCCN1C(=O)c2ccccc2C1=O`: the Potency was inactive: > 76.9 µM.

With `NS(=O)(=O)c1ccc(CCNC(=O)CNC(=O)C2CCCCC2)cc1`, the Potency was inactive: > 76.9 µM.

On to `CCCCN1C(=O)c2ccc(C(=O)Nc3c(N)n(CCCC)c(=O)n(C)c3=O)cc2C1=O`, for which the Potency was inactive: > 76.9 µM.

As for `Cc1oc(-c2ccc(F)cc2)cc1-c1nn2c(-c3ccco3)nnc2s1`, the Potency was inactive: > 76.9 µM.

As for `CC1CCc2sc3ncn4nc(C(=O)NCc5ccco5)nc4c3c2C1` (stereo unspecified), the Potency was inactive: > 76.9 µM.

Regarding `COCCNC(=O)C1c2cc(OC)c(OC)cc2C(=O)N(C)C1c1cccnc1` (stereo unspecified), the Potency was inactive: > 76.9 µM.

`CC1CCN(CCNC(=O)C2CCCN(S(=O)(=O)c3cccc4nonc34)C2)CC1` (stereo unspecified): the Potency is inactive: > 76.9 µM.

As to `Cc1oc2cc3c(C(=O)OCCN(C)C)c(C)oc3cc2c1C(=O)OCCN(C)C`, the Potency was inactive: > 76.9 µM.

In the case of `O=C(CSc1nc2ccccc2o1)Nc1ccccc1N1CCCCCC1`, the Potency is inactive: > 76.9 µM.

As for `C=CCNC(=O)NC(=O)COC(=O)COc1ccc(Br)cc1F`, the Potency is inactive: > 76.9 µM.

Turning to `CCCN(CCC)CCCNS(=O)(=O)c1cc(Br)cc2c1N(C(C)=O)CC2`, the Potency was inactive: > 76.9 µM.

Consider `CCOc1nc(C)ccc1-c1noc(C)n1`, for which the Potency was inactive: > 76.9 µM.

As to `O=C(COC(=O)c1ccco1)Nc1ccc(Br)cc1`, the Potency was inactive: > 76.9 µM.

As to `CCCC(=O)Nc1ccc(NC(=O)c2cccc(OC)c2)nc1`, the Potency was inactive: > 76.9 µM.

Consider `CC(=O)c1cccc(NC(=O)Nc2c(C)nn(C)c2C)c1`, for which the Potency was inactive: > 76.9 µM.

Regarding `Cc1ccc(OCC(O)CN2CCN(CC(O)COC(C)C)CC2)c(C(C)(C)C)c1` (stereo unspecified), the Potency was inactive: > 76.9 µM.

In the case of `CCc1ccc(-c2nc(CN3CCC(C(=O)N4CCN(c5ccccn5)CC4)CC3)c(C)o2)cc1`, the Potency is inactive: > 76.9 µM.

Turning to `COc1cc(NS(=O)(=O)c2cc(C)ccc2OC)c(OC)cc1Cl`, the Potency was inactive: > 76.9 µM.

`CCCCn1c(CN2CCN(CCO)CC2)nc2ccccc21`: the Potency was inactive: > 76.9 µM.

`CCN(CC)S(=O)(=O)c1ccc2oc(C(=O)NCC3COc4ccccc4O3)c(C)c2c1` (stereo unspecified): the Potency is inactive: > 76.9 µM.

Consider `Cc1onc(-c2ccccc2)c1C(=O)NCC1CCCO1` (stereo unspecified), for which the Potency was inactive: > 76.9 µM.

Consider `CCOc1ccc2[nH]cc(C(=O)N3CCN(CC)CC3)c(=O)c2c1`, for which the Potency was inactive: > 76.9 µM.

Take `C/C(N)=C(/C#N)C(=O)CN1CCCCC1`: the Potency is inactive: > 76.9 µM.

On to `O=c1c2cc3c(cc2[nH]c(=S)n1CCN1CCOCC1)OCO3`, for which the Potency was inactive: > 76.9 µM.

With `O=C(NCc1ccc2c(c1)OCO2)C1CCCN1C(=O)Nc1ccccc1` (stereo unspecified), the Potency was inactive: > 76.9 µM.

Regarding `COc1ccc(Cl)cc1-c1n[nH]c(=S)o1`, the Potency was inactive: > 76.9 µM.

Take `CC(=O)c1c(C)n([O-])c2ccc(C)cc2[n+]1=O`: the Potency is inactive: > 76.9 µM.

As for `COc1cccc(NC(=O)c2oc3ccccc3c2NC(=O)C2CC2)c1`, the Potency is inactive: > 76.9 µM.

In the case of `CC1=C(C(=O)Nc2ccccc2)C(c2ccc(N(C)C)cc2)NC(=O)N1` (stereo unspecified), the Potency is inactive: > 76.9 µM.

With `O=C(CSc1ncccc1-c1nc2ccccc2[nH]1)N1CCCCC1`, the Potency was inactive: > 76.9 µM.

Take `O=C1c2ccccc2C(=O)N1CCCc1nc2ccccc2c(=O)n1CCCn1ccnc1`: the Potency was inactive: > 76.9 µM.

In the case of `c1cncc(-c2nnc(-c3cccs3)o2)c1`, the Potency is inactive: > 76.9 µM.

As for `CCN1CCN(C(=O)c2cnn3c(C(F)F)cc(-c4ccc(C)cc4)nc23)CC1`, the Potency was inactive: > 76.9 µM.

Turning to `CN(C)C(=O)C1(c2ccccc2)CCN(S(=O)(=O)c2ccccc2)CC1`, the Potency was inactive: > 76.9 µM.

For `CC(=O)N1C(=O)c2cccc3cccc(c23)C(=O)N1C(C)=O`, the Potency was inactive: > 76.9 µM.

With `O=C(CSc1nnc(-c2cccs2)n1-c1ccccc1)N1CCOCC1`, the Potency is inactive: > 76.9 µM.

Turning to `O=C(Nc1c(F)cc(F)cc1Br)c1cc2nc(C(F)F)cc(C(F)F)n2n1`, the Potency was inactive: > 76.9 µM.

For the compound `Cn1c(=O)c2c(ncn2CC(=O)Nc2nc(-c3ccccc3Cl)cs2)n(C)c1=O`, the Potency is inactive: > 76.9 µM.

For the compound `COc1ccc(C(=O)Cn2nnc(-c3ccc(N4CCOCC4)cc3)n2)cc1OC`, the Potency is inactive: > 76.9 µM.

As to `CS(=O)(=O)N(CC(=O)N1CCCC1)c1ccc(OCc2ccccc2)cc1`, the Potency was inactive: > 76.9 µM.

In the case of `c1ccc(-n2cnc3cc(NCc4ccccn4)ccc32)cc1`, the Potency is inactive: > 76.9 µM.

For the compound `Cc1cc(=O)[nH]c(SC/C=C/c2ccccc2)n1`, the Potency was inactive: > 76.9 µM.

As to `Cc1ccc(-n2c(-c3ccncc3)nnc2-c2cccs2)cc1`, the Potency was inactive: > 76.9 µM.

With `Cc1cc(C)n(-c2nc3sc4c(c3c3nnc(SC(C)C)n23)CC(C)(C)OC4)n1`, the Potency was inactive: > 76.9 µM.

For `COC(=O)C(C#N)C(c1cccnc1)c1c(C)[nH][nH]c1=O` (stereo unspecified), the Potency was inactive: > 76.9 µM.

`O=C(c1cccc(S(=O)(=O)N2CCOCC2)c1)N1CCCc2ccccc21`: the Potency was inactive: > 76.9 µM.

As for `Cc1noc(C)c1CSCC(=O)OCc1nc2ccccc2c(=O)n1CC#N`, the Potency was inactive: > 76.9 µM.

As for `O=C(O)C1CC=CCC1C(=O)NC12CC3CC(CC(C3)C1)C2` (stereo unspecified), the Potency is inactive: > 76.9 µM.

For `Cc1nc2nc(CSc3nnc(C)s3)cc(=O)n2[nH]1`, the Potency was inactive: > 76.9 µM.
